From PubChem BioAssay AID588855 (National Center for Advancing Translational Sciences (NCATS), 2011)
The campaign covered roughly 410,000 compounds. About 5,000 (1.2%) were called active. The shares of active, inactive and inconclusive entries below differ from those in the screen. Calls come from the whole dose curve; as a rule, active = well fitted inhibition curve with a large enough effect; inconclusive = small, poorly fitted or top-dose-only effect; inactive = no such curve, though single readings can be large or run the other way. A potency beside an inconclusive call is a rough fit, not a confirmed value.
% is set by controls: 0 for no effect and ±100 for the full control effect; potency is the fitted concentration of half-maximal effect; tags give direction and shape of the fitted curve.

Assay: qHTS for Inhibitors of TGF-b; note: nearly all actives have a fitted effect of over 65% in size
Conditions: HepG2 CAGA-GFP TGF-b/SMAD3 reporter, GFP fluorescence, 18 h, TGF-beta stimulated, 500 pg/mL final; series mostly up to 46.1 µM; activity, negative = inhibition: at the top concentration
In short: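 Read-out: total well GFP (ex488/em500-530) summed from mean per-cell fluorescence. Cells: HEPG2 CAGA-GFP, 1% FBS DMEM, 18 h at 37 degrees C with 500 pg/mL final TGF-beta. Unstimulated wells served as the full-inhibition control; stimulated DMSO wells = 0%.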
In the case of O=C(NCc1cccs1)C1CCN(c2ccc(S(=O)(=O)N3CCOCC3)cc2Cl)CC1, the Potency is reported as inconclusive: 12.6 µM [inhibitor, partial curve, poor fit].
With O=C(CCN1C(=O)c2cccc([N+](=O)[O-])c2C1=O)Nc1nccs1 the “activity, negative = inhibition” value was inactive: 4.16%.
In the case of CC(C)CC(COCc1ccc(Cl)cc1)N1CCN(C(=O)c2cccc(C(F)(F)F)c2)CCC1=O (centres undefined), the Potency is reported as inconclusive: 15.8 µM [inhibitor, single point].
With O=C(c1ccc(Cl)c(S(=O)(=O)N2CCOCC2)c1)N1CCCCC1 the “activity, negative = inhibition” value was inactive: -1.64%.
In the case of CC(C)(C)S(=O)(=O)c1cnc(-c2ccc(Cl)cc2)nc1N, the “activity, negative = inhibition” value is reported as inactive: -19.5%.
With COc1ccccc1-c1cc(C(=O)Nc2sc3c(c2C#N)CCC(C)C3)c2ccccc2n1 (centres undefined) the “activity, negative = inhibition” value was inactive: 1.54%.
With CS(=O)(=O)c1ccccc1-c1nnc(NC(=O)Cc2ccccc2)o1 the Potency was inconclusive: 6.31 µM [inhibitor, single point].
In the case of S=C(Nc1ccc(Oc2ccccc2)cc1)N1CCN(c2ccccn2)CC1, the Potency is reported as inconclusive: 20 µM [inhibitor, partial curve, poor fit].
In the case of O=S(=O)(NCC(c1ccccc1)N1CCc2ccccc21)c1ccccc1 (centres undefined), the Potency is reported as inconclusive: 22.4 µM [inhibitor, single point].
In the case of Cc1ccc(C)c(S(=O)(=O)N2CCN(C(=O)C3CCN(c4ncnc5sc(C)c(C)c45)CC3)CC2)c1, the Potency is reported as inconclusive: 12.6 µM [inhibitor, partial curve].
In the case of CCn1c(=O)c2sccc2n2c(CCC(=O)Nc3ccc(OC)cc3OC)nnc12, the “activity, negative = inhibition” value is reported as inactive: 3.85%.
For CCOC(=O)c1sc2ncnc(N3CCN(c4ccc(OC)cc4)CC3)c2c1C, the Potency was inconclusive: 1.41 µM [inhibitor, partial curve, poor fit].
In the case of O=C(CSc1ncnc2c1nnn2Cc1ccc(F)cc1)NCC1CCCO1 (centres undefined), the “activity, negative = inhibition” value is reported as inactive: -29.9%.
In the case of CCC(CC)C(=O)Nc1cccc(C(=O)Nc2ccc(S(N)(=O)=O)cc2)c1, the “activity, negative = inhibition” value is reported as inactive: 1.25%.
With O=C(CCc1ccccc1)NC(=S)Nc1cc(C(F)(F)F)ccc1N1CCOCC1 the Potency was inconclusive: 10 µM [inhibitor, partial curve].
With O=C(C1CC1)N(Cc1nc2ccccc2c(=O)[nH]1)Cc1cccs1 the “activity, negative = inhibition” value was inactive: -4.41%.
For COc1cc(C(=O)NC(=S)Nc2ccc(Cc3ccncc3)cc2)cc(OC)c1OC, the Potency was inconclusive: 35.5 µM [inhibitor, single point].
In the case of O=C(Nc1ccccc1)c1ccc2c(O)c(S(=O)(=O)c3ccc(Cl)cc3)c(=O)[nH]c2c1, the “activity, negative = inhibition” value is reported as inactive: -6.96%.
For Cc1ccc(C)n1-c1ccc(C(=O)Nc2ccccc2)cc1, the “activity, negative = inhibition” value was inactive: -3.07%.
In the case of Cc1ccc(C)c(NC(=O)c2cc(-c3ccccc3)nn2-c2ccccc2)c1, the “activity, negative = inhibition” value is reported as inactive: -26.9%.
With Cc1cc(C)c(CN2CCN(C(=O)CC[C@H]3O[C@@H](n4cnc5c(NC(=O)c6ccccc6)ncnc54)[C@H](O)[C@@H]3O)CC2)c(C)c1 the Potency was inconclusive: 28.2 µM [inhibitor, single point].
For CCOc1ccccc1C(=O)Nc1ccc2nc3c(c(Nc4ccc(OC)c(OC)c4)c2c1)CCCC3, the Potency was inconclusive: 35.5 µM [inhibitor, single point].
In the case of COCCn1nnnc1CN(CCc1ccccc1)Cc1cc2cc(OC)ccc2[nH]c1=O, the “activity, negative = inhibition” value is reported as inactive: -4.71%.
In the case of Cc1c(Cl)cccc1NC(=S)NC(=O)CCN1C(=O)c2ccccc2C1=O, the Potency is reported as inconclusive: 6.31 µM [inhibitor, single point].
In the case of CC1CCN(S(=O)(=O)c2ccc(NC(=O)CN3CCCCCC3)cc2)CC1, the “activity, negative = inhibition” value is reported as inactive: 1.63%.
In the case of CN1CCN(c2ccc(S(=O)(=O)N3CCCCC3)cc2NC(=O)/C=C/c2ccc(Cl)c([N+](=O)[O-])c2)CC1, the Potency is reported as inconclusive: 35.5 µM [inhibitor, single point].
With CC(C)n1nccc1N(Cc1ccc(Br)cc1)S(=O)(=O)c1ccccc1 the Potency was inconclusive: 35.5 µM [inhibitor, single point].
With COc1cccc(NS(=O)(=O)NC(=O)c2c(C)[nH]c3ccccc23)c1 the “activity, negative = inhibition” value was inactive: 3.47%.
In the case of Cc1cc(C(c2cc(C)c(N)c(C)c2)c2ccco2)cc(C)c1N, the Potency is reported as inconclusive: 35.5 µM [inhibitor, single point].
For CC/C(=C/c1sc2ccccc2[n+]1CC)SC, the “activity, negative = inhibition” value was inactive: -2.55%.
In the case of COc1ccc(C(CC(=O)N2CCCC2)c2c(OC)cc(OC)c3c(-c4ccccc4)cc(=O)oc23)cc1 (centres undefined), the Potency is reported as inconclusive: 35.5 µM [inhibitor, single point].
In the case of c1ccc(-c2[nH]ncc2CN2CCN(Cc3ccc4c(c3)OCO4)CC2)cc1, the Potency is reported as inconclusive: 6.31 µM [inhibitor, single point].
In the case of COc1ccc(CN(C)Cc2c(O)ccc3cc(Br)ccc23)cc1OC, the Potency is reported as inconclusive: 35.5 µM [inhibitor, single point].
In the case of Cc1ccc(S(=O)(=O)Nc2cccc3cccnc23)c([N+](=O)[O-])c1, the Potency is reported as active: 4.47 µM.
In the case of CC1(C)C2([N+](=O)[O-])CN3CC1([N+](=O)[O-])CN(C2)C3c1ccccc1 (centres undefined), the “activity, negative = inhibition” value is reported as inactive: -5.66%.
For Cc1c(-c2ccccc2)cnc2c(C)cccc12, the Potency was inconclusive: 10 µM [inhibitor, single point].
For CCOC(=O)c1c(C)n(C)c2cc(Br)c(O)c(O)c12, the Potency was inconclusive: 8.91 µM [inhibitor, partial curve, poor fit].
With CCC(C)Sc1cccc(-c2nc3ccc(C)cn3c2NC2CCCCC2)c1 (centres undefined) the Potency was inconclusive: 35.5 µM [inhibitor, partial curve, poor fit].
For CCOC(=O)C1CCN(c2c(NC3CCCCCCC3)c(=O)c2=O)CC1, the Potency was inconclusive: 14.1 µM [inhibitor, single point].
In the case of O=C(NCCc1ccccc1)c1nccc2ccccc12, the “activity, negative = inhibition” value is reported as inactive: -7.18%.
For O=S(=O)(c1ccccc1)N1CCN(c2nc(-c3cccnc3)nc3ccccc23)CC1, the “activity, negative = inhibition” value was inactive: -2.28%.
For Cc1ccnc2c(Cl)cccc12, the Potency was inconclusive: 5.62 µM [inhibitor, full curve].
In the case of COCCn1nnnc1CN1CCC(O)(c2cccc(C(F)(F)F)c2)CC1, the Potency is reported as inconclusive: 5.62 µM [inhibitor, single point].
In the case of CC(C)(C)c1cc(-c2csc(Nc3ccccc3)[n+]2Cc2ccc(C(=O)O)cc2)cc(C(C)(C)C)c1O, the Potency is reported as inconclusive: 35.5 µM [inhibitor, single point].
